Source: patent US20240307507A1, “LACTOFERRIN COMPOSITIONS AND METHODS OF USE” (LACTEA THERAPEUTICS LLC, priority 2021, published 2024)

Key:
[1] = system: Extra-Cellular Matrix (ECM) of Caco-2 cells; assay: Lactoferrin enrichment at the ECM by immunofluorescent imaging, Caco-2 cells; details: varying concentrations, 37° C., two hours, IF imaging
[2] = system: salivary human bacteria (including Lactobacillus, Lactococcus, Streptococcus mutans, and Porphyromonas gingivalis); assay: Poultry surface treatment, chicken breasts inoculated with salivary bacteria; details: 3 mg/mL surface treatment, 6 days at 37° C.

B1: API-E2: purified bovine lactoferrin from raw, untreated milk produced according to Example 1 (protein)
chain: APRKNVRWCTISQPEWFKCRRWQWRMKKLGAPSITCVRRAFALECIRAIAEKKADAVTLDGGMVFEAGRDPYKLRPVAAEIYGTKESPQTHYYAVAVVKKGSNFQLDQLQGRKSCHTGLGRSAGWIIPMGILRPYLSWTESLEPLQGAVAKFFSASCVPCIDRQAYPNLCQLCKGEGENQCACSSREPYFGYSGAFKCLQDGAGDVAFVKETTVFENLPEKADRDQYELLCLNNSRAPVDAFKECHLAQVPSHAVVARSVDGKEDLIWKLLSKAQEKFGKNKSRSFQLFGSPPGQRDLLFKDSALGFLRIPSKVDSALYLGSRYLTTLKNLRETAEEVKARYTRVVWCAVGPEEQKKCQQWSQQSGQNVTCATASTTDDCIVLVLKGEADALNLDGGYIYTAGKCGLVPVLAENRKSSKHSSLDCVLRPTEGYLAVAVVKKANEGLTWNSLKDKKSCHTAVDRTAGWNIPMGLIVNQTGSCAFDEFFSQSCAPGADPKSRLCALCAGDDQGLDKCVPNSKEKYYGYTGAFRCLAEDVGDVAFVKNDTVWENTNGESTADWAKNLNREDFRLLCLDGTRKPVTEAQSCHLAVAPNHAVVSRSDRAAHVKQVLLHQQALFGKNGKNCPDKFCLFKSETKNLLFNDNTECLAKLGGRPTYEEYLGTEYVTAIANLKKCSTSPLLEACAFLTR
Lactoferrin enrichment at the ECM [1]: enrichment at the ECM was observed as concentration increased
bacterial growth on chicken breast [2]: no detectable growth
